# Experimental data: the supplement of paper PMC3334620
# Over roughly 33,000 sequences, “E-score (-0.5 to 0.5)” has its median near -0.054; the highest 2% begin near 0.35. The list shows a part of the results.
# Molecular target: T1, Stb5 (UniProt P38699)
# T1 sequence: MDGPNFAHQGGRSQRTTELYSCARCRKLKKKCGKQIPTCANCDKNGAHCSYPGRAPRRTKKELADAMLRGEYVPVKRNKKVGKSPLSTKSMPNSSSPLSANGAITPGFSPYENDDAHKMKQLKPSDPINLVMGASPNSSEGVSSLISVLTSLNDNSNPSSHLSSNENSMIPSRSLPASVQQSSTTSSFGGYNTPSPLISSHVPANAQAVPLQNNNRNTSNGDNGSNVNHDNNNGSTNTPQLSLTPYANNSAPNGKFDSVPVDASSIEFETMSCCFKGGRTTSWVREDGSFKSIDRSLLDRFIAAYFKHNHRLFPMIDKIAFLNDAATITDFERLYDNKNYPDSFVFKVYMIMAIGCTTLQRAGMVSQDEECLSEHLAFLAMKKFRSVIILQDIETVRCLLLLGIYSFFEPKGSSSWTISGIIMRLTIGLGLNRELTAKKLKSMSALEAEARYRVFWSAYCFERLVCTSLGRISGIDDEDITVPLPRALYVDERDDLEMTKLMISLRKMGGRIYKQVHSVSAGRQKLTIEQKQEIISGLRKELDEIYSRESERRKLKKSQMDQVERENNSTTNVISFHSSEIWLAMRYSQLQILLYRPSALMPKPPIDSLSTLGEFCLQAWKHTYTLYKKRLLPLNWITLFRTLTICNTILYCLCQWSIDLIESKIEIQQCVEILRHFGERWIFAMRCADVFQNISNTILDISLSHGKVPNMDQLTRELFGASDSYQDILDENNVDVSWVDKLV
# Experiment: PBM E-score (8-mer binding enrichment) (E-score (-0.5 to 0.5)); higher = stronger / more preferred TF binding; most listed sequences are background and not binding sites
# Settings: protein concentration: 200 nM; construct: GST-full length
# In short: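 GST-tagged yeast TFs (full-length or DNA-binding domain) were made by PURExpress in vitro transcription/translation and applied at about 100-200 nM to universal all-10-mer Agilent arrays. The arrays were made double-stranded by primer extension, on fresh or once-stripped slides. Bound protein was detected with fluorescent anti-GST, and scans were normalised with masliner. Each ungapped eight-base word, pooled with its reverse complement, received an E-score (modified Wilcoxon-Mann-Whitney statistic) from the Universal PBM Analysis Suite.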
row,Sequence,PBM E-score
1,CTTACCGA,0.0867
2,CCAGGGGA,0.0175
3,GGCGATAC,0.314
4,TCGCAAAA,-0.121
5,TCGCTCAA,-0.192
6,ACCCTGAA,-0.115
7,AGCAACGA,-0.226
8,ATTCATGC,-0.128
9,GTTCGCTA,-0.0984
10,GGCAAGAA,0.134
11,GGGGCACA,-0.0591
12,GAGCAGGA,-0.113
13,GATACGCA,-0.284
14,GTTCTTTA,-0.0238
15,TAAGAACA,-0.0089
16,ACACAGTG,-0.184
17,GATCAACC,-0.121
18,ATTGAGGA,-0.153
19,AAGGGTGG,-0.162
20,ATATATAG,0.21
21,AGCCACCA,-0.16
22,ACGTATGC,-0.0892

row,Sequence,PBM E-score
1,TCTAATAA,-0.12
2,TAGACATA,-0.0673
3,AGACTCAT,-0.315
4,ACTCAGAG,-0.132
5,ATTCGGAA,-0.00284
6,ACGAACCT,-0.14
7,CGCACAAA,-0.0261
8,ATCCAGCG,0.152
9,AGGGTACT,-0.242
10,CTAGTATA,0.036
11,GCACCGTA,0.248
12,GCCTTACC,0.0537
13,AACTACAA,-0.0188
14,AGTTCCGG,0.333
15,AATGATGT,-0.212
16,TGAGTCCA,-0.178
17,GAAGCCTC,-0.166
18,GGTGCGGA,0.236
19,ATCGCGCC,0.224
20,GGAGTAAA,0.16
21,AACAGCTT,-0.244
22,GGTTAGGA,-0.00117

row,Sequence,PBM E-score
1,CGGAGCGA,0.265
2,AACCATAT,0.0532
3,CAAGTGGC,-0.185
4,TCTCAAAA,-0.0375
5,GCCAAGAA,0.0257
6,CGCGCTTC,0.016
7,CGGCTCCC,-0.0984
8,CACCTGAC,-0.141
9,ATAAGCTG,-0.18
10,ATTCGGGG,0.298
11,AGCGCCTA,-0.131
12,CAGCTTTA,-0.121
13,CGGGTGTC,0.00649
14,ACTAGCCA,-0.381
15,AAGACTCC,0.00562
16,AACGTCCC,-0.0635
17,TAAGCCCA,0.0396
18,GAAGTACA,0.0264
19,CACGCTAC,-0.219
20,AAAGGAGC,-0.0913
21,CCAGCTAC,-0.248
22,CGATCGCC,0.0927

row,Sequence,PBM E-score
1,GAACCTCA,-0.0815
2,ACTGGTGG,-0.239
3,GGGTCGGA,0.348
4,CTATTACA,-0.131
5,AAGGGTCC,0.158
6,GTGGACAA,0.00929
7,CGAGTGTC,-0.0644
8,CAGACAAC,0.0416
9,ATGTAACC,0.284
10,CCTACTGA,-0.223
11,ACACGGAG,0.289
12,CTCTTTCC,-0.142
13,ACTCGGTG,0.188
14,AAACTTGG,0.0222
15,ATAGCCTC,0.0787
16,TGTCAACA,-0.114
17,GCCGGATA,0.331
18,GGGTTTCA,0.19
19,GGTCCCGA,0.148
20,CGCGCTAC,0.129
21,AACCAGGA,-0.116
22,TAGCAAAA,0.0942

row,Sequence,PBM E-score
1,CTACCATA,-0.186
2,CCTAGACC,-0.255
3,GTGACCAC,-0.142
4,AAAAGCTC,-0.0499
5,CGTGTAAA,0.0599
6,CGCCACGC,0.0386
7,CTATAGAG,0.0204
8,CCTTGGTC,-0.161
9,AACTCTAT,0.0202
10,AAATTCGT,-0.0784
11,TCCCTGAA,-0.0896
12,CTAGTCTA,-0.286
13,AATCTTTA,0.022
14,CCCGGTAA,0.298
15,ACTACTAA,-0.00102
16,ACCAGTTG,-0.178
17,GGGTGGGA,-0.0256
18,AGAAGGCG,-0.222
19,CTGGATCC,0.118
20,GAACTCTC,-0.21
21,AATACGGT,0.116
22,GATCCTTA,-0.111
